In PMC4336329 (PLoS ONE, 2015):
In all, about 310,000 compounds went through this assay and about 14,000 (4.5%) showed an effect of 50% or more. The effect is printed as a negative number. The list shows a part of the results.

target: human ether-à-go-go-related gene (hERG) potassium channel (human, UniProt Q12809); test: primary screen, population patch clamp on CHO cells stably expressing hERG
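Further: peak tail current of the secondary pulse compared with the same well before compound.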

human ether-à-go-go-related gene (hERG) potassium channel, sequence (Q12809 whole entry, looked up): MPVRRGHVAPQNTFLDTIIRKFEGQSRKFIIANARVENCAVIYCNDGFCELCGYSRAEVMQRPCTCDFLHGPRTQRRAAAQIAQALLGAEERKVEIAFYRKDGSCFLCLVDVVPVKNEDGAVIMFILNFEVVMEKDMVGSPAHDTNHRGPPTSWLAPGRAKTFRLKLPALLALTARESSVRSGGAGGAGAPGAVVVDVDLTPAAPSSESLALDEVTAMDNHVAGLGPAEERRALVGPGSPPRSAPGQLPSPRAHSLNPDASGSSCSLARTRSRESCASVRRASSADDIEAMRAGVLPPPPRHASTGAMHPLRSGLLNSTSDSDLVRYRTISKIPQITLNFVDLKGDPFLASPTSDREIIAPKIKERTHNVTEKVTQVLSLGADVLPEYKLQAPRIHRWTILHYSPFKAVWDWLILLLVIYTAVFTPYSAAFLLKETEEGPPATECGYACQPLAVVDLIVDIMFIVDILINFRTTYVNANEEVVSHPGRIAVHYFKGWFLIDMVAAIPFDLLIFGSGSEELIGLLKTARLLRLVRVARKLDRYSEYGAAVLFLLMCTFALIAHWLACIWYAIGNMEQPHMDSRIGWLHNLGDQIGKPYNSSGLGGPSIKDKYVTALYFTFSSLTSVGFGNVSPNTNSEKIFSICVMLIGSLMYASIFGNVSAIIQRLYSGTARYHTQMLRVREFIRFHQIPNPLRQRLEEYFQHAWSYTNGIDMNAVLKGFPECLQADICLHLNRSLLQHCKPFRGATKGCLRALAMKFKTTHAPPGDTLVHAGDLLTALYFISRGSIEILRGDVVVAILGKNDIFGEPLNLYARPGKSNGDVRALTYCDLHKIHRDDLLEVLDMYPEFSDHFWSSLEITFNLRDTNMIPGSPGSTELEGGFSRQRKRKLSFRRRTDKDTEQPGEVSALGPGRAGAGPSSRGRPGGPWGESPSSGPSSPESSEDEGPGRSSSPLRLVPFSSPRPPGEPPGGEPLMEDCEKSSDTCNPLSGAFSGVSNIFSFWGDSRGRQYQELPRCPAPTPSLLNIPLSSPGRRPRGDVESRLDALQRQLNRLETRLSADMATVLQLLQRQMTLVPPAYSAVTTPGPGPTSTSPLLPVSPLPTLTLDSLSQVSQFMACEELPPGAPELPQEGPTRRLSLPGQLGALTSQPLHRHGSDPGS

| Compound | hERG current change (%, negative = inhibition) at 10uM |
| --- | --- |
| CCOc1ccc2nc(SCC(=O)N3CCCCCC3)c(C#N)cc2c1 | 0.675% |
| CCOC(=O)C1(Cc2ccccc2)CCN(Cc2cccc3nccnc23)CC1 | -59.9% |
| Nc1c(-c2cccs2)cnc2c(-c3ccc(F)cc3)cnn12 | 12.5% |
| CC(C)c1ccc(NC(=O)C2C3C=CC4(CN(Cc5cccnc5)C(=O)C24)O3)cc1 (centres unmarked) | 9.2% |
| Cc1ccc(NC(=O)Cn2nc([N+](=O)[O-])c(Br)c2C)cc1C | 6.58% |
| Cn1nc(C(F)(F)F)c(/C=N/OC(=O)c2ccccc2Cl)c1SCc1ccccc1Cl | -5.41% |
| CC(=O)c1ccc(-c2ccc(C(=O)Nc3nc(C)c(C(C)=O)s3)o2)cc1 | -1.79% |
| CN(CC(=O)Nc1cccc([N+](=O)[O-])c1)S(=O)(=O)c1ccccc1 | -51.9% |
| Cc1ccc(S(=O)(=O)Nc2ccc(C(=O)Nc3ccncc3)cc2)cc1 | 18.5% |
| CCCOC(=O)CCCCCCCCC(O)CN1CCCCC1.Cl (centres unmarked) | -30% |
| O=c1c2ccccc2c(C=NCCCN2CCOCC2)c(O)n1Cc1ccccc1 | -47.7% |
| COc1ccc(C(=O)NC(C)C2CC3CCC2C3)cc1 (centres unmarked) | 2.42% |
| COC(=O)c1cc2ccccc2c(=O)s1 | -4.28% |
| COc1ccc(S(=O)(=O)N2CCCCC2)cc1NS(=O)(=O)c1cc(Cl)ccc1Cl | -11.7% |
| O=C(Nc1ccc(Cl)cc1)c1csc(-c2ccncc2)n1 | -38.6% |
| O=C(CSCc1ccccc1)NCCc1ccc(F)cc1 | -1.11% |
| COC(=O)c1cc(S(=O)(=O)Nc2ccc(C)cn2)c[nH]1 | 15.4% |
| O=C(CCc1nc(-c2ccccn2)no1)NCc1ccc2c(c1)OCO2 | 8.83% |
| CN(C)c1ccc(C(=O)c2ccccc2)cc1 | -1.72% |
| c1ccc(-n2cnnc2SCc2nc3ccccc3s2)cc1 | 5.25% |
| COc1ccc(CN(C(=O)Cn2nnc(-c3ccc(C)o3)n2)C(C(=O)NCC2CCCO2)c2ccco2)cc1 (centres unmarked) | -0.424% |
| CC(=O)Nc1ccc(N2N=C(C)C(N=Nc3ccccc3)C2=O)cc1 (centres unmarked) | -8.98% |
| Cn1cccc1Cc1nnc(SCC(N)=O)n1-c1ccc(F)cc1 | -1.46% |

| Compound | hERG current change (%, negative = inhibition) at 10uM |
| --- | --- |
| O=C(N/N=C/c1cccc([N+](=O)[O-])c1)c1ccc(Br)cc1 | 10.1% |
| CCOC(=O)c1cnc2c(C#N)c(C)nn2c1C | 1.96% |
| O=C(O)c1cccc(N=Nc2c(O)[nH]c(=O)[nH]c2=O)c1 | -1.03% |
| NNC(=O)CSCc1nc(-c2ccc(Cl)cc2)cs1 | 7.86% |
| COc1ccc(NC(=O)COC(=O)CN2C(=O)C3CCCCC3C2=O)cc1OC (centres unmarked) | 11.1% |
| COc1ccccc1Nc1nc2nonc2[nH]c1=O | 30.2% |
| COc1ccccc1/C=C/C=N/NC(=O)CCC1C(=O)NN=C1C (centres unmarked) | 10.9% |
| CCN1CCCC1CNC(=O)CSc1cc(=O)n(C)c2cc(Cl)ccc12 (centres unmarked) | -32.7% |
| CC1CCN(c2nnc(-c3ccccc3)c3ccccc23)CC1 | -28.7% |
| COc1ccc(CC(=O)NC(c2ccccc2)c2ccccc2)cc1S(=O)(=O)N1CCOCC1 | -6.09% |
| COc1ccc(C(=O)NN2CCOCC2)cc1[N+](=O)[O-] | 12.9% |
| COc1cc(CNC2CCCc3ccccc32)cc(OC)c1OC.O=C(O)C(=O)O (centres unmarked) | -13.9% |
| [Br-].c1ccc(-c2cn(-c3ccccc3)c3[n+]2CCCS3)cc1 | -3.51% |
| Cc1cc(N2CCN(c3ncccn3)CC2)nc2c(C)cccc12 | 11.9% |
| COCCCNC(=O)CS(=O)(=O)Cc1nc(-c2cccc(OC)c2)oc1C | 7.73% |
| CC1=CCn2c(=O)c3ccccc3c(=O)n2C1 | 13.1% |
| Cc1cccc(-n2c(C)c(-c3ccccc3)[nH]c2=S)c1 | 4.01% |
| CCSc1nnc(-c2ccc(S(=O)(=O)N3CCCC3)cc2)n1C | 8.57% |
| Cc1ccc(S(=O)(=O)Nc2cc(Cl)c(O)c3ncccc23)cc1 | -23.4% |
| O=C(CSCc1ccccc1)N1CCN(S(=O)(=O)c2cccc(F)c2)CC1 | 9.83% |
| COC(=O)c1ccc(N2CCN(C)CC2)c(NC(=O)COc2ccc(C)cc2)c1 | -20% |
| CCOC(=O)c1c(C)n(CC(COC(C)=O)OC(C)=O)c2ccc(OC(C)=O)cc12 (centres unmarked) | -33.3% |
| COc1ccc(/C=N/NC(=O)c2cccnc2)cc1CSc1ccccn1 | -6.44% |

| Compound | hERG current change (%, negative = inhibition) at 10uM |
| --- | --- |
| Cc1[nH]c2ccc(OCc3ccccc3)cc2c1CCN1C(=O)OC(C)(C)C1(C)O (centres unmarked) | 4.14% |
| COc1ccc(N2CCN(CC(=O)Nc3ccccc3C(=O)NCc3ccccc3)CC2)cc1 | -55.9% |
| O=C(N/N=C/C1=Cc2ccccc2OC1)c1ccncc1 | 11.8% |
| N#Cc1c2n(c(=S)n(-c3ccccc3[N+](=O)[O-])c1=O)CCCCC2 | -15% |
| CC(Sc1cccc[n+]1[O-])c1ccccc1 (centres unmarked) | 17.2% |
| Cc1ccc(S(=O)(=O)NCc2ccc(/C=C(/C#N)C(=O)NCc3ccccc3)o2)cc1 | -16.3% |
| COc1cccc(N2CCN(Cc3nc(N)nc(N4CCCc5ccccc54)n3)CC2)c1 | -45% |
| CC[C@@H]1CC=C[C@H]2[C@H]1C(=O)N(Cc1ccccc1)[C@H]2c1ccoc1 | -8.05% |
| COc1ccc(CNC(=O)Cn2c(=O)oc3cc(S(=O)(=O)N4CCCC4)ccc32)cc1 | 36.5% |
| O=C(NCC(c1cccnc1)N1CCN(c2ccccc2F)CC1)OCc1ccccc1 (centres unmarked) | -20.2% |
| Cc1ccc2c(=O)cc(C(=O)NCCc3ccc(S(N)(=O)=O)cc3)oc2c1C | 25.8% |
| O=c1[nH]c2ccc(S(=O)(=O)NCCO)cc2[nH]1 | 15.1% |
| COC(=O)C(C)Oc1ccc(-c2nccc(-c3ccccn3)n2)cc1 (centres unmarked) | -0.312% |
| Oc1ccc(Nc2ccnc3cc(Cl)ccc23)cc1 | -2.29% |
| CCOc1cccc(-c2cc(-c3n[nH]c(=S)n3CC)c3ccccc3n2)c1 | 13.1% |
| CCOc1ccc(CN(C)Cc2cc(=O)oc3cc(C)c(Cl)cc23)cc1 | 7.63% |
| CCCCCNC(=O)CCn1c(=O)oc2ccccc21 | 7.26% |
| CCc1cc(=O)oc2cc(OC3CCCCC3=O)ccc12 (centres unmarked) | 23.2% |
| Cc1c(OCC(=O)NC2CCN(Cc3ccccc3)CC2)ccc2c3c(c(=O)oc12)CCC3 | -47.7% |
| CNc1nc2ccccc2n1/N=C/c1cccc(OC)c1OC | -10.3% |
| COc1ccccc1C(=O)NC(=O)COC(=O)CNC(=O)c1ccc(Cl)c([N+](=O)[O-])c1 | -35.9% |
| O=C(CCC1CCCCC1)Nc1cccnc1 | 11.7% |
| O=C(O)c1ccc(S(=O)(=O)N2CCC3(CC2)CC(=O)c2ccccc2O3)cc1 | 11.5% |

| Compound | hERG current change (%, negative = inhibition) at 10uM |
| --- | --- |
| COc1ccc(NC(=O)NC2(C(=O)N3CCCC3)CCCCC2)cc1 | 22% |
| Cc1ccc(NC(=O)Nc2cccs2)cc1 | -2.58% |
| Cn1cc(S(=O)(=O)NCCc2ccccc2)c(=O)n(C)c1=O | -13.8% |
| CCOC(=O)CSc1nnc(-c2ccc(OC)cc2OC)o1 | -15.5% |
| CCOC(=O)N1CCN(C(=O)Cn2ncc3c2-c2ccccc2OC3)CC1 | -3.57% |
| CS(=O)(=O)N1CCC(Oc2ccccc2C(=O)N2CCCCC2CO)CC1 (centres unmarked) | 13% |
| CCSc1cc(C2C(C#N)=C(N)Oc3n[nH]c(C)c32)c(C)o1 (centres unmarked) | 6.09% |
| CCN1CCN(c2ccc(NC(=O)c3ccco3)cc2Cl)CC1 | -4.06% |
| CSCc1cc(N(C)c2ccccc2)nc(-c2ccccn2)n1 | -7.8% |
| CSc1nc2ccc(NC(=O)C3=NN(c4ccccc4)C(=O)CC3)cc2s1 | -15.5% |
| CC(=O)c1c(C)[nH]c(C(=O)OCc2cccc(Cl)c2)c1C | 2.54% |
| COCCN1CCN(C(=O)c2cc(COc3cc(C)ccc3C)on2)CC1 | 1.06% |
| Cc1ccc(S(=O)(=O)NCCC(=O)OCC(=O)Nc2cccc(S(=O)(=O)NC3=NCCCCC3)c2)cc1 | 3.43% |
| O=C(NNC(=O)c1csc(-c2cnccc2C(F)(F)F)n1)c1ccc(C(F)(F)F)cc1 | -6.75% |
| COc1cccc(N2C(=O)Nc3ccc(Br)cc3C2(O)C(=O)NCCCN(C)C)c1 (centres unmarked) | 19.3% |
| O=C(NCCc1ccc(F)cc1)c1ccc2nccnc2c1 | -23.4% |
| O=C(CN1C(=O)c2ccc([N+](=O)[O-])cc2C1=O)NCCC1=CCCCC1 | 3.82% |
| O=C(CN1C(=O)C2C3C=CC(C3)C2C1=O)Nc1nc2ccccc2[nH]1 (centres unmarked) | 1.59% |
| CCN1CCN(CC(O)COCC2COc3ccccc3O2)CC1.Cl (centres unmarked) | -4.69% |
| C#CCOCCOCCOCCNc1nc(N2CCN(C(=O)Cn3cc(CCC[NH+]=C(N)N)nn3)CC2)nc(N2CCN(C(=O)[C@H]([C@@H](C)CC)n3cc(CCC(=O)O)nn3)CC2)n1.[Cl-] | 5.56% |
